# Results as given in article PMC4336329 (PLoS ONE, 2015).
# In all, about 310,000 compounds went through this assay and about 14,000 (4.5%) showed an effect of 50% or more. The effect is printed as a negative number. The list shows a part of the results. Where a SMILES comes first, the peptide text is derived from it. The star is where a group is joined. Cbz = O=C(OCc1ccccc1)*
# Biological target: human ether-à-go-go-related gene (hERG) potassium channel (human, UniProt Q12809)
# Assay: primary screen, population patch clamp on CHO cells stably expressing hERG
# 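Note: peak tail current of the secondary pulse compared with the same well before compound.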
# Sequence of human ether-à-go-go-related gene (hERG) potassium channel (Q12809 whole entry, looked up): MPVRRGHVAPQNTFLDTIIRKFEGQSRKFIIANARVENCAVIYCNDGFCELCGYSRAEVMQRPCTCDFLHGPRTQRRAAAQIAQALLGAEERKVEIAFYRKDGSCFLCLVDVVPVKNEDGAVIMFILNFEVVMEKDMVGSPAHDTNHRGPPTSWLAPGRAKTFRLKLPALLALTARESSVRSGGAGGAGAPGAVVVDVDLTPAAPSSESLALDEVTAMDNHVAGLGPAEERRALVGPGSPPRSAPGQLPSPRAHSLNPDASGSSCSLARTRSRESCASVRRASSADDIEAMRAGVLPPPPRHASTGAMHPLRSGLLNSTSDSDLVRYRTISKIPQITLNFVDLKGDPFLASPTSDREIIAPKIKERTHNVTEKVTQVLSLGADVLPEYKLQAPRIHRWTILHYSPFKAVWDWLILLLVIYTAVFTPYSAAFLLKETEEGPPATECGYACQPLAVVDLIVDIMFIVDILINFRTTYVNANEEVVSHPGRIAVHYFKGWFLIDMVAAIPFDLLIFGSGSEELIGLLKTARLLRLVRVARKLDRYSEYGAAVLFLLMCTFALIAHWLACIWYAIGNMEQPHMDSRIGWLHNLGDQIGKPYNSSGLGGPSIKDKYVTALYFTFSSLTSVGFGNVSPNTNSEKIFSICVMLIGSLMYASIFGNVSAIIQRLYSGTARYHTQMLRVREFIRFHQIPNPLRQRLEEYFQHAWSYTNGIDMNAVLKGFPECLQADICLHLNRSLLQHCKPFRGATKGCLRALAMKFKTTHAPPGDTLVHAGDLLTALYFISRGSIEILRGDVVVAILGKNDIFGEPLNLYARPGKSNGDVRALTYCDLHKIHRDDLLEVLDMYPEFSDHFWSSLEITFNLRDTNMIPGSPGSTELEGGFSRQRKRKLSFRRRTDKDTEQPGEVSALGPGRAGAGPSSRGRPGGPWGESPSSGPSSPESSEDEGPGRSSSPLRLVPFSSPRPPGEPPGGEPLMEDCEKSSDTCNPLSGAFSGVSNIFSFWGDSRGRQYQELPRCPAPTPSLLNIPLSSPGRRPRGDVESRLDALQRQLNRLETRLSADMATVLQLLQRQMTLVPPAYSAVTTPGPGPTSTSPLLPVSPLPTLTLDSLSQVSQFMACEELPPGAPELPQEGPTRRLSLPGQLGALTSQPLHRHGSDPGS
row,Structure (SMILES),"hERG current change (%, negative = inhibition) at 10uM [%]"
1,COc1cc(C)c(-c2[nH]ncc2-c2csc(C)n2)c(O)c1,1.23
2,COc1ccc(C)cc1NC(=O)NCc1ccco1,16.2
3,C=C(C)Cn1c(-c2cccc([N+](=O)[O-])c2)n[nH]c1=S,-0.235
4,COc1ccc(N(CC(=O)Nc2ccccc2OC)S(=O)(=O)c2ccc(NC(C)=O)cc2)cc1,-3.12
5,CCCN1C(=O)c2ccc(C(=O)NC3CCCCC3)cc2C1=O,18.4
6,CCN(CC)C(=S)Sc1c(-c2ccccc2)c2cc(Cl)ccc2[nH]c1=O,5.42
7,COc1ccc(OC)c(NC(=O)CCN2CCCCCC2)c1.Cl,-0.265
8,NC(=O)NC(=O)C(OC(=O)CCNS(=O)(=O)c1ccccc1)c1ccccc1 (stereo not drawn),-15.2
9,COc1ccc(-n2nnnc2SCC(=O)NCc2ccco2)cc1OC,-7.64
10,CCN(CC)S(=O)(=O)c1ccc(OC)c(NC(=O)c2ccc(OC)c([N+](=O)[O-])c2)c1,-24.4
11,O=C(CCNS(=O)(=O)c1ccccc1)N1CCCC1,20.5
12,O=C(O)Cn1cc(C(=O)C(F)(F)F)c2ccccc21,23.2
13,O=C1NN(c2cccc(Br)c2)C(=O)/C1=C\c1ccc(O)cc1,12
14,CCOc1ccc(NC(=O)c2ccco2)cc1,1.89
15,COc1ccccc1OCCC(=O)Nc1nc(C)cs1,-4.6
16,COc1ccc2c(c1)CCCN2S(=O)(=O)c1ccc(Cl)cc1,9.65
17,O=C1CN(C(=O)OCc2ccccc2)c2ccccc2N1,6.68
18,COC(=O)C(C)C1Sc2ccccc2NC1=O (stereo not drawn),15.7
19,O=C1C(Cl)=C(N2CCCCC2)C(=O)N1c1ccccc1Cl,2.75
20,O=C(COC(=O)c1ccccc1Nc1ccc(SC(F)F)cc1)NCc1ccco1,9.78
21,NC(=O)c1ccccc1OCC(=O)Nc1ccc2c(c1)CCC2,5.27
22,CCOc1c(Cl)cc(/C=C/C(=O)N(CC)CC(=O)Nc2ccc(NC(C)=O)cc2)cc1OC,-9.39
23,Cc1ccc(C(C)C)c(OCC(=O)NNC(=O)Nc2ccccc2)c1,-2.28

row,Structure (SMILES),"hERG current change (%, negative = inhibition) at 10uM [%]"
1,CCOc1ccc(NC(=O)CN(C)C(=O)C2=COCCO2)cc1OCC,-11.1
2,CCC(=NCCc1ccc(OC)c(OC)c1)C1=C(O)CC(C)(C)CC1=O,17.6
3,O=C(COC(=O)C1CCCCC1)Nc1ccccc1OC(F)F,44.1
4,O=C(Nc1ccc2sccc2c1)c1cccc(N2C(=O)CCC2=O)c1,-4.81
5,Cc1ccc(C(=O)Nc2nc(=O)n(C(=O)CC(C)C)s2)cc1,43
6,COc1ccc(S(=O)(=O)CCC(=O)N2CC(=O)N(CCc3ccccc3)C(=O)C2)cc1,-9.84
7,COCCNC(=O)CCCCCNS(=O)(=O)c1ccc(C)cc1,8.18
8,Cc1cc(C)cc(OCC(=O)Nc2ccc(N3CCN(S(C)(=O)=O)CC3)cc2)c1,3.74
9,CCCc1nnc(NC(=O)C(CC)OC(=O)c2cc(C)nc3ccccc23)s1 (stereo not drawn),-28
10,COC(=O)c1cccc(OC(N)=O)c1,-0.699
11,COc1cc(/C=C/C(=O)O)cc(S(=O)(=O)N(C)CCO)c1OC,-2.7
12,COc1ccc(N(C)S(=O)(=O)c2ccc3c(c2)CCC(=O)N3)cc1,-9.5
13,CCOC(=O)C(NC(=O)c1ccccc1Cl)(Nc1ccc(C)c(C)c1)C(F)(F)F (stereo not drawn),1.26
14,COc1cc2ccccc2cc1C(=O)Nc1ccc(Br)cn1,21.2
15,Clc1cccc(/C=N/Nc2ncnc3ccccc23)c1,-18.3
16,Cc1ccc(C(=O)CN2C(=O)NC3(CCCCCC3)C2=O)c(C)c1,22
17,CN(Cc1cnn(-c2ccccc2)c1)C(=O)C1CCC(=O)N(C2CC2)C1 (stereo not drawn),-10.1
18,Cc1ccnc(NC(=O)COc2c(C)cc(C)cc2[N+](=O)[O-])c1,12.3
19,COc1ccc(C2c3[nH]c4ccccc4c3C[C@H]3C(=O)N(CC(C)C)CC(=O)N23)c(OC)c1 (stereo partly drawn),-10
20,Cc1ccc(C(=O)Nn2cnc3scc(-c4cccs4)c3c2=O)c(O)c1,11.6
21,COc1cc(OC)c(C(=O)N/N=C/c2ccoc2)cc1OC,7.88
22,O=c1[nH]cc(O)c(=O)[nH]1,9.49
23,CC(C)c1ccc(C(=O)N2CCN(CCO)CC2)cc1.Cl,3.21

row,Structure (SMILES),"hERG current change (%, negative = inhibition) at 10uM [%]"
1,CN1CCN(S(=O)(=O)c2ccc(Cl)nc2)CC1,5.86
2,Cc1ccccc1-c1nnn(CC(=O)Nc2ccc3c(c2)OCCO3)n1,4.87
3,CN(C1CCCCC1)S(=O)(=O)c1ccc2c(c1)c(=O)c(C(=O)N1CCc3ccccc3C1)cn2C,0.174
4,CC(CNC(=O)C1CCCN(S(=O)(=O)N2CCOCC2)C1)c1ccccc1 (stereo not drawn),14.1
5,COc1ccc(/C=N\NC(=O)c2cc(O)c(O)c(O)c2)cc1COc1ccc(C(=O)OCC(C)C)cc1,21
6,CC(=O)N1CCN=C1SCc1ccccc1Cl,13
7,Cc1cccc(OCC(=O)N/N=C2/SCC(=O)N2Cc2ccco2)c1,-25.4
8,Cc1cc2ccccn2c1C(=O)c1nc(N2CCOCC2)ncc1Cl,-38.5
9,CC1(C)O[C@@H]2C[C@H]3[C@@H]4CCC5=CC(=O)C=C[C@]5(C)[C@@]4(F)[C@@H](O)C[C@]3(C)[C@]2(C(=O)CO)O1,13.7
10,CCc1c(C)nc2ncnn2c1Nc1ccc(C)cc1,-5.65
11,Cc1cccc(-c2ncc(CN3CCCC(CO)(Cc4ccccc4C)C3)cn2)c1 (stereo not drawn),-11.4
12,CC(=O)c1ccc(OCc2cc(C(=O)N3CCOCC3)no2)cc1,14.6
13,COC(=O)C(CO)NC(=O)C1CCCN1C(=O)CNC(=O)OCc1ccccc1 (stereo not drawn) (Cbz-Gly-Pro-Ser-OMe; configuration not given here),23.5
14,O=C(NC(=S)Nc1cccc(Cl)c1N1CCCC1)c1ccc(-c2cccc([N+](=O)[O-])c2)o1,27.7
15,COc1ccc(C(=O)NC(=S)N2CCN(C)CC2)cc1Br,23.5
16,Nn1c(SCc2cccc(Br)c2)nnc1-c1cccnc1,28.2
17,Cc1ccc(C(=O)O/N=C(/c2nonc2N)N(C)C)cc1,2.33
18,COc1ccc(-c2nnc3sc(-c4cccs4)nn23)cc1OC,-4.36
19,Cc1cc2nc(CSc3ccc(Cl)cc3)cc(=O)n2[nH]1,-7.37
20,Cc1ccc(N=C2NC(=O)CS2)cc1C,21.3
21,COc1ccc2[nH]c3c(=O)n(CCCC(=O)NC4CCCCC4C)c(=S)[nH]c3c2c1 (stereo not drawn),9.14
22,Cc1nn(CC(=O)NCC(C)c2ccccc2)c(=O)c2cc3occc3n12 (stereo not drawn),-3.5
23,CCc1ccccc1-n1nnnc1SCC(=O)Nc1ccc(N2CCN(C)CC2)cc1,-26.6

row,Structure (SMILES),"hERG current change (%, negative = inhibition) at 10uM [%]"
1,CCNC(=S)N1CCN(c2ncccn2)CC1,2.38
2,C/C(=N\n1cnnc1)c1ccc(C#N)cc1,26
3,Cc1onc(-c2ccccc2)c1C(O)c1ccc(F)cc1 (stereo not drawn),23.8
4,Fc1cccc(Oc2nc3ccccc3n3cccc23)c1,9.03
5,Cc1ccc(S(=O)(=O)N(CC(=O)NCCC2=CCCCC2)Cc2ccccc2F)cc1,2.42
6,CN(C)c1ccc(C(=S)N2CCN(C(=S)Nc3ccc(Cl)cc3)CC2)cc1,6.65
7,O=C(N/N=C\c1ccccn1)C1c2ccccc2Oc2ccccc21,8.54
8,Cc1[nH]c2ccccc2c1/C=N/NC(=O)c1ccc(N)cc1,11.2
9,CCOc1cc(S(=O)(=O)NC2CC(C)(C)NC(C)(C)C2)ccc1Cl,6.46
10,CCCCn1c(N)c(N(Cc2ccccc2OC)C(=O)CN2C(=O)NC(C)(c3ccccc3)C2=O)c(=O)[nH]c1=O (stereo not drawn),17.7
11,COc1ccc(O)c(/C=N/NC(=O)CCC(=O)Nc2ccc(F)cc2)c1,0.85
12,O=C(NCCCN1CCCC1=O)c1cccnc1,15.3
13,Cc1ccc(SCc2noc(C(=O)NCC3CCCO3)c2C(=O)O)cc1C (stereo not drawn),12.1
14,Cc1cc(NC(=O)c2ccc(NC(=O)c3cccs3)cc2)no1,-17
15,COc1ccc(NC(=O)CSc2nc3ccsc3c(=O)n2CCCCCC(=O)O)cc1,29.3
16,O=c1cc(O)nc2n1CCCS2,18.7
17,CCOc1ccc2cc(C#N)c(SCC(=O)N3CCOCC3)nc2c1,12
18,CCOC(=O)N1CCC(NC(=O)C2=CCN(S(=O)(=O)c3ccc(F)cc3)CC2)CC1,-7.1
19,CC(CN1CCN(C)CC1)OC(=O)c1ccccc1Cl (stereo not drawn),2.44
20,COc1cccc(NC(=O)NC2CC(=O)N(c3ccc4c(c3)OCCO4)C2)c1 (stereo not drawn),-11.2
21,O=C(Nc1cccc(Cl)c1N1CCCCC1)c1ccc(N2CCOCC2)c([N+](=O)[O-])c1,-13.2
